# Measured values: publication PMC6212790
# The other results are listed elsewhere or left out. At the low end of the ranking the order means little.
# Target: T1, GST-Rok (full length) (UniProt O34857)
# T1 sequence: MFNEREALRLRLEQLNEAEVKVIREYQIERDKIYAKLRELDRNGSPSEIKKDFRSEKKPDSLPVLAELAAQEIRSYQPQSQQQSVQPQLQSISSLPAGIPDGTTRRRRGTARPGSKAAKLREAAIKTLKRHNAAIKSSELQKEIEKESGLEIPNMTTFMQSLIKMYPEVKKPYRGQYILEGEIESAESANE
# Assay: protein binding microarray;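 further: rank score from −0.5 (least bound) to 0.5 (best bound)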
# Conditions: Rok is a gene silencer of Bacillus subtilis; high values mean tight binding; most listed sequences are background and not binding sites; double strand, one strand shown
row,Sequence,binding signal [E-score]
1,ACGCATAC,0.0406
2,ATGGTTAC,-0.167
3,AACTATAA,0.326
4,GTGCGTCA,-0.13
5,CGGCAGAA,0.0508
6,GGCCTGAA,-0.334
7,CCGGCGCG,-0.342
8,ACTACCCG,-0.156
9,CTGGAACC,-0.123
10,AAGCATAG,0.0143
11,CTTATCGA,0.0539
12,CCTCAACA,-0.105
13,CTCTGTAC,0.036
14,GCTCTACA,-0.114
15,TTCACAAA,-0.00818
16,AAGTCACG,-0.187
17,ACAACGAA,0.101
18,CGTTGGGC,-0.313
19,AAAGATCC,0.00787
20,CAGATCCG,0.0157
21,CGGAAGTA,0.205
22,ACGATTGC,-0.0759
23,GATCTGCA,0.222
24,AAAGCCAT,-0.188
25,CCAGGGGG,-0.413

row,Sequence,binding signal [E-score]
1,ACGGCCAG,-0.189
2,ATTTCATA,0.2
3,TCATAGGA,0.105
4,ACTTGGCA,-0.0171
5,CCCCTGTA,-0.15
6,AATCTGCT,-0.197
7,AGCCGTAA,0.0716
8,AGGTGAGC,-0.0616
9,AAGGAATC,-0.0168
10,ATTCTCGC,0.0188
11,CGAGAGTC,-0.165
12,ATAAATGG,0.129
13,ACGTACAT,0.236
14,GTTACTTA,0.243
15,GCACTGAC,0.0223
16,AGTCGTTC,-0.114
17,AAGGCGGT,-0.0994
18,CGCAGACC,-0.216
19,CCTTGAGC,-0.274
20,AAGCAGCG,-0.0481
21,AGCAAGAT,-0.0176
22,AATTCGCC,0.0442
23,ATCCGACA,0.0482
24,AAATTTTA,0.285
25,ACTCGCGA,0.00126

row,Sequence,binding signal [E-score]
1,AGGTATTA,0.21
2,AATGCGAG,0.132
3,TCAGGGCA,-0.135
4,AAAGAGAT,0.0211
5,CGTGAGTC,-0.21
6,ATCATGGG,-0.141
7,TACCCCAA,-0.0214
8,CGCGCGAC,0.0395
9,GATATTAC,0.364
10,CATGGTGA,0.0117
11,CTCGTAAC,-0.0505
12,ACCACCGT,-0.0469
13,ACACTGTG,0.143
14,TACTCGGA,-0.103
15,AGTTGGGG,-0.169
16,AAGACTCC,-0.131
17,AAGCTCAG,-0.1
18,AAACCCAA,0.0502
19,GAAGGCCC,-0.477
20,ATGGCCGC,-0.381
21,TCCGCGGA,-0.14
22,AAATTGAT,0.0562
23,AGTGCCAA,0.0622
24,CCCCGAAC,-0.366
25,GTCTCCAA,-0.187

row,Sequence,binding signal [E-score]
1,CTTCGCAA,-0.114
2,AGCGATAG,-0.0213
3,TCTTCAAA,0.0644
4,AGCCGTAG,0.0323
5,CGTTCGCA,-0.183
6,GGTAATTA,0.375
7,ACGAAAGC,-0.119
8,TCCATACA,0.211
9,GCTGTGCC,-0.308
10,AGTGTGGA,0.108
11,CTCCAGCC,-0.243
12,CGTAACGA,0.166
13,CCCCCTAC,-0.403
14,AGCATCAC,-0.00104
15,GAACCACC,-0.256
16,ACCCGCAG,-0.2
17,AATGGAAT,0.0413
18,TCTCGGAA,-0.0124
19,GACCCGGC,-0.336
20,GTAAGCTA,0.181
21,CTCATATA,0.13
22,CCCCGGAG,-0.437
23,CTTGATGA,-0.13
24,AGAGTATC,0.0505
25,ATCCTAGG,-0.0661

row,Sequence,binding signal [E-score]
1,ATCTCGTG,-0.143
2,ATCCAGCC,-0.136
3,AACCCCCT,-0.455
4,CGACTGTC,-0.255
5,AAGCCGAA,0.00167
6,GATCAGGC,-0.00823
7,AATGCGGC,0.00238
8,AGCGGAAA,0.0596
9,AGTTAGGG,-0.0305
10,ACGTTATA,0.202
11,ATAACAGA,0.104
12,ACTCAAGA,-0.0412
13,CGGTGGGA,-0.18
14,CTTAGCAC,-0.0712
15,CCAGGCAA,-0.216
16,AAGTGATC,-0.0867
17,CTATTGGC,-0.136
18,ATTACGCA,0.236
19,GCTTGGCA,-0.0867
20,AGCCCTAA,-0.164
21,ACCCCTAA,-0.264
22,ACACTACG,-0.0357
23,ACTAGAGT,0.224
24,ATTGGCAA,-0.188
25,GCGATGCC,-0.079

row,Sequence,binding signal [E-score]
1,AGAATAGA,-0.0682
2,CCTTCACA,0.0629
3,GAAGGTAC,-0.0712
4,GGAACTAC,0.294
5,CATGCCAC,-0.115
6,AGGACCTA,0.144
7,CCCCCCGG,-0.385
8,GTCATCAC,-0.106
9,AATCGGAT,-0.024
10,AATCGCAG,0.0474
11,CACCGCTC,-0.238
12,CGAGATAG,0.0866
13,CCCTAAGG,-0.334
14,CGTCTTTA,0.155
15,CCTATCTA,0.34
16,CACTGTCA,-0.0558
17,AACTTCGG,-0.044
18,CCTTATAC,0.0515
19,AGTTCGCG,0.0786
20,GATAAAGA,0.00716
21,AAGGCGAG,-0.243
22,AGTTAACC,0.0465
23,AATGCCGT,-0.077
24,CGGTCCAA,-0.0697
25,AATCGCTC,-0.175

row,Sequence,binding signal [E-score]
1,ACGAGGCA,-0.0779
2,ATCTAGTC,0.297
3,ATGTCCGA,-0.0166
4,AAAAATAT,0.319
5,AACGAGTA,0.128
6,AGTTTGCC,0.151
7,AGGGCGCG,-0.256
8,ACAGTCAA,-0.00886
9,ATAGCCAT,-0.0303
10,ACGTGTAT,0.24
11,CATTCCAC,-0.122
12,AAATTCCT,-0.0504
13,GGGATCCC,-0.41
14,CAGGATTC,0.121
15,CACAACCC,-0.136
16,CTCTTAGC,0.0497
17,GATCCACC,-0.074
18,AATGCTGA,0.0167
19,CGTATCAC,0.181
20,ACATAAAC,0.257
21,AGAGGGTG,-0.305
22,ACCGGCTC,-0.322
